In patent US9278107B2, “Antibacterial agent composition and antiviral agent composition comprising silicon-containing compound; antibacterializing method, cleaning/mouth rinsing method; method for fixing antibacterial agent and antiviral agent” (Hiroshima University, priority 2008, dated 2016):

Test system: Escherichia coli WP2uvrA and Salmonella typhimurium TA series strains (TA100, TA1535, TA98 and TA1537)
Details: positive control, in the presence of S9mix

In the case of `Nc1ccc2cc3ccccc3cc2c1` [2-Aminoanthracene], the reverse mutation is reported as “obvious reverse mutation”.
